Data from PubChem BioAssay AID2675 (National Center for Advancing Translational Sciences (NCATS), 2010).
The campaign covered roughly 280,000 compounds. About 100 (0.036%) were called active. Inconclusive means that the source gave no clear call. Such entries were picked first, then a sample of the others. Calls follow the shape of the dose curve; as a rule, active = well fitted inhibition curve with a large enough effect in the signal ratio, with a control signal flat (not every such curve was filed as active); inconclusive = small, poorly fitted or top-dose-only effect, or effect the other way, or a change in a side signal; inactive = no such curve, though single readings can be large or run the other way; the % refers to the signal ratio. Potencies of inconclusive entries are doubtful fits and often do not repeat. “Side channel” marks fits to a control or component signal instead of the main read-out.
% is scaled to controls: 0 for no effect and ±100 for the full control effect; potency is read from the fitted curve at half-maximal effect; tags tell the direction and shape of the fitted curve or compound fluorescence and quenching.

What follows are molecules tested against Muscleblind-like protein 1 (Homo sapiens) (UniProt Q9NR56) (assay: qHTS Assay for Inhibitors of MBNL1-poly(CUG) RNA binding). Settings: TR-FRET MBNL1-His/biotin-(CUG)12 binding, 665/545 ratio; activity change, negative = inhibition: at 57.5 µM (top of the series).
UniProt Q9NR56, sequence (Q9NR56 whole entry, looked up): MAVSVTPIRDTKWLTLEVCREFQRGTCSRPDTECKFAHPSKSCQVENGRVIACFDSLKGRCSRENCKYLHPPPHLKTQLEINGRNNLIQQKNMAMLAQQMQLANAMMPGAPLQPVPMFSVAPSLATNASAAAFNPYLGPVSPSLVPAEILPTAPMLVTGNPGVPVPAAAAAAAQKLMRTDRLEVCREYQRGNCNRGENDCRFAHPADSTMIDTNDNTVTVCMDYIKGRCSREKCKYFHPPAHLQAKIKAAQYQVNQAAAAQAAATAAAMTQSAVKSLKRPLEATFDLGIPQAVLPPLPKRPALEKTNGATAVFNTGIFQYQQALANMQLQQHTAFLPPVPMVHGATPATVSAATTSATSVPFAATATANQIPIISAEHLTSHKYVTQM
Summary of the method: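 Inhibition of protein-RNA binding appears as loss of TR-FRET between terbium anti-His antibody on MBNL1-His and streptavidin-XL665 on biotin-(CUG)12. Activity is normalized to buffer-only and uninhibited-complex controls.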
In the case of `Cc1ccnc(SCc2cc(=O)c(OC(=O)c3ccc(S(=O)(=O)N(C)C)cc3)co2)n1`, the “activity change, negative = inhibition” value is reported as inactive: 3.75%.
`Cc1ccc(N=c2oc3cc(O)ccc3cc2C(N)=O)cc1` was tested, and the Potency was inconclusive: 15.8 µM [quencher, side channel, partial curve].
With `Nc1nc(-c2ccc3ccccc3c2)cs1` the Potency was inconclusive: 31.6 µM [quencher, side channel, single point].
For `CCOC(=O)C1=C(C)NC(=S)N(C=O)C1c1ccccc1` (stereo not drawn), the “activity change, negative = inhibition” value was inactive: 1.4%.
`c1ccc(-c2cn3nc(-c4ccccc4)cnc3n2)cc1` was tested, and the Potency was inconclusive: 28.2 µM [quencher, side channel, single point].
With `CC(=O)Nc1ccc(NC(=O)CC2Nc3cccc4cccc(c34)NC2=O)cc1` (stereo not drawn) the Potency was inconclusive: 28.2 µM [quencher, side channel, single point].
With `CC(C)COc1ccc(C(=O)Nc2ncn[nH]2)cc1` the “activity change, negative = inhibition” value was inactive: -4.34%.
In the case of `Cc1c(C)c2c(C)nn(-c3ccccc3)c2[nH]c1=O`, the “activity change, negative = inhibition” value is reported as inactive: -19.3%.
With `CCc1ccc(NC(=O)COC(=O)CCc2nc3cc(S(=O)(=O)N(CC)CC)ccc3n2C)cc1` the “activity change, negative = inhibition” value was inactive: -13.3%.
In the case of `COc1ccc(C(=O)C2CCCN(Cc3c(F)ccc(F)c3F)C2)c(OC)c1` (stereo not drawn), the “activity change, negative = inhibition” value is reported as inactive: 0.881%.
With `COCc1c(C(=O)N/N=C/c2ccncc2)nnn1-c1nonc1N` the Potency was inconclusive: 7.94 µM [quencher, side channel, partial curve].
With `Cc1nc(CNS(=O)(=O)c2cc([N+](=O)[O-])ccc2C)cs1` the Potency was inconclusive: 17.8 µM [quencher, side channel, partial curve].
`CCOC(=O)c1cccc(S(=O)(=O)N(CCO)Cc2cc3cc(OC)ccc3[nH]c2=O)c1` was tested, and the Potency was inconclusive: 28.2 µM [fluorescent, side channel, single point].
In the case of `Cc1ccccc1N=Nc1c(O)n(C)c2ccccc12`, the Potency is reported as inconclusive: 20 µM [quencher, side channel, single point].
For `CNC(=O)c1ccc(-c2sc3nc(N4CCOCC4)c4c(c3c2N)CCCC4)o1`, the Potency was inconclusive: 15.8 µM [quencher, side channel, partial curve].
In the case of `Cc1ccc[n+](-c2nc3ccccc3nc2[N-]S(=O)(=O)c2ccccc2)c1`, the Potency is reported as inconclusive: 15.8 µM [quencher, side channel, partial curve].
`Cc1ccccc1N1CCN(C2=NC(=O)/C(=C\c3cccs3)S2)CC1` was tested, and the Potency was inconclusive: 15.8 µM [quencher, side channel, single point].
With `O=[N+]([O-])c1cccc(-n2nnnc2CN2CCCC2)c1` the Potency was inconclusive: 28.2 µM [quencher, side channel, partial curve].
For `O=C(C1CC1)N(CCN(Cc1ccccc1)C(=O)C1CC1)Cc1ccccc1`, the “activity change, negative = inhibition” value was inactive: 1.53%.
With `CNc1ccc(C(=O)N2CCN(S(=O)(=O)c3ccc4c(c3)OCCCO4)CC2)cc1[N+](=O)[O-]` the Potency was inconclusive: 17.8 µM [quencher, side channel, partial curve].
`O=C(Nc1cccc2ncccc12)c1cc([N+](=O)[O-])ccc1Cl` was tested, and the Potency was inconclusive: 3.98 µM [quencher, side channel, full curve].
In the case of `Cc1ccc(Cl)cc1NC1=C/C(=N\S(=O)(=O)c2cccs2)c2ccccc2C1=O`, the Potency is reported as inconclusive: 17.8 µM [quencher, side channel, partial curve].
`O=C1CN(O)C=C2N=c3ccccc3=C2N1c1ccc([N+](=O)[O-])cc1` was tested, and the Potency was inconclusive: 4.47 µM [quencher, side channel, full curve].
With `CNC(=S)N1CCN(c2ccc([N+](=O)[O-])cc2)CC1` the Potency was inconclusive: 12.6 µM [quencher, side channel, partial curve].
For `O=C(On1c(-c2ccccc2)nc2ccccc2c1=O)c1ccco1`, the “activity change, negative = inhibition” value was inactive: -16.2%.
In the case of `CCCCCCCc1ccc(-c2ccc(O)cc2)nc1`, the “activity change, negative = inhibition” value is reported as inactive: -4%.
`COC(=O)CC1C(=O)NCCN1C(=O)c1cc([N+](=O)[O-])ccc1Cl` (stereo not drawn) was tested, and the Potency was inconclusive: 11.2 µM [quencher, side channel, partial curve].
With `COC(=O)c1ccc(COn2c(=O)c(C)[n+]([O-])c3ccccc32)cc1` the Potency was inconclusive: 3.55 µM [quencher, side channel, full curve, poor fit].
`O=[N+]([O-])c1ccc(/C=C/c2ccncc2)cc1` was tested, and the Potency was inconclusive: 11.2 µM [quencher, side channel, partial curve].
In the case of `O=C(CNc1cccc2ccccc12)N/N=C/c1ccc(C(=O)O)cc1`, the Potency is reported as inconclusive: 31.6 µM [quencher, side channel, partial curve].
For `O=C(CSc1nc(O)c(-c2ccccc2)c(=O)[nH]1)N1CCOCC1`, the Potency was inconclusive: 39.8 µM [quencher, side channel, single point].
In the case of `Cc1cc(N(CCO)CCO)ccc1N=Nc1cc(F)ccc1F`, the Potency is reported as inconclusive: 15.8 µM [quencher, side channel, partial curve].
`c1ccc(CCN=C2CCCc3c2[nH]c2ccccc32)cc1` was tested, and the Potency was inconclusive: 39.8 µM [quencher, side channel, single point].
With `O=C(C1CCCN(Cc2ccccc2Br)C1)N1CCCCC1` (stereo not drawn) the “activity change, negative = inhibition” value was inactive: 0.71%.
`CC(=O)N1N=C(c2ccco2)CC1c1cccs1` (stereo not drawn) was tested, and the “activity change, negative = inhibition” value was inactive: 26.4%.
With `CCOC(=O)c1sc2nc(C)cc(C)c2c1N` the Potency was inconclusive: 17.8 µM [quencher, side channel, partial curve].
For `O=C1C(Cl)=C(Nc2ccc(O)cc2)C(=O)c2ccccc21`, the Potency was inconclusive: 10 µM [quencher, side channel, partial curve].
With `CCOC(=O)c1ccc(N2Cc3ccccc3C2=NC(=O)c2ccncc2)cc1` the Potency was inconclusive: 20 µM [quencher, side channel, partial curve].
For `CCC(=O)Nc1cccc(-c2ccc(N3CCCCC3)nn2)c1`, the Potency was inconclusive: 35.5 µM [quencher, single point].
In the case of `CCOC(=O)Cn1c(O)c(N=NC(=O)CNC(=O)Cc2ccccc2)c2ccccc21`, the Potency is reported as inconclusive: 11.2 µM [quencher, side channel, partial curve].
`O=[N+]([O-])c1ccc2c(c1Nc1ccccc1)=NC1(CCCCC1)N=2` was tested, and the Potency was inconclusive: 1.78 µM [quencher, side channel, full curve].
`Cc1cc(-c2nn(-c3ccccc3F)cc2CN2CCCC(CO)C2)c(C)s1` (stereo not drawn) was tested, and the “activity change, negative = inhibition” value was inactive: -10.4%.
For `CC1(N2CCOCC2)CC2(O)C(=[N+]1[O-])CCc1nonc12` (stereo not drawn), the Potency was inconclusive: 11.2 µM [quencher, side channel, partial curve, poor fit].
In the case of `Cc1ccnc(N2C(=O)c3ccc([N+](=O)[O-])cc3C2=O)c1`, the Potency is reported as inconclusive: 28.2 µM [quencher, single point].
`COc1ccc(/C=N/NC(=O)C(=O)N2CCCCCC2)cc1O` was tested, and the Potency was inconclusive: 31.6 µM [quencher, side channel, single point].
In the case of `O=C(NCCc1ccc(Cl)cc1)C(=O)c1c[nH]c2ccccc12`, the “activity change, negative = inhibition” value is reported as inactive: 18%.
`O=C(Oc1cccc2cccnc12)c1ccc(Br)o1` was tested, and the “activity change, negative = inhibition” value was inactive: 6.65%.
`O=C(NCCO)c1ccc2nc(-c3ccco3)c(-c3ccco3)nc2c1` was tested, and the Potency was inconclusive: 12.6 µM [quencher, side channel, partial curve].
With `COc1cccc(CN2CCN(Cc3cc(OC)c(OC)cc3[N+](=O)[O-])CC2)c1` the Potency was inconclusive: 31.6 µM [quencher, side channel, single point].
For `CCn1c(-c2ccccc2Cl)nn(CC(=O)Nc2ccc(OC)cc2)c1=S`, the “activity change, negative = inhibition” value was inactive: -8.81%.
`CCN(CC)C(=O)C1CCN(S(=O)(=O)c2cccc3nonc23)CC1` was tested, and the Potency was inconclusive: 15.8 µM [quencher, side channel, partial curve].
`CCC(C)(C)c1nnc(NC(=O)c2cccc([N+](=O)[O-])c2)s1` was tested, and the Potency was inconclusive: 12.6 µM [quencher, side channel, partial curve, poor fit].
In the case of `Cc1nc2ccccc2nc1OCC(=O)N1CCN(c2ccccc2)CC1`, the Potency is reported as inconclusive: 12.6 µM [quencher, side channel, partial curve].
For `Cc1ccc(N(CC(=O)NC2CCCC2)C(=O)CNC(=O)c2cccs2)cc1C`, the “activity change, negative = inhibition” value was inactive: -5.75%.
With `Cc1occc1C(=O)N/N=C/c1ccc(N(C)C)cc1` the Potency was inconclusive: 8.91 µM [quencher, side channel, full curve, poor fit].
With `CN1C(=S)N(c2cccnc2)C(=O)/C1=C\c1ccc(N(C)C)cc1` the Potency was inconclusive: 3.16 µM [quencher, side channel, full curve].
With `CCOc1ccccc1NC(=O)CSc1ccc2nnc(-c3cccnc3)n2n1` the “activity change, negative = inhibition” value was inactive: 0.692%.
For `CS(=O)(=O)Nc1ccc(C(=O)CC(=O)Nc2ccc([N+](=O)[O-])cc2)cc1`, the Potency was inconclusive: 22.4 µM [quencher, single point].
With `COc1ccc(-c2nn(-c3ccccc3)cc2C(=O)Nc2cccc(C(=O)O)c2)cc1[N+](=O)[O-]` the Potency was inconclusive: 31.6 µM [quencher, side channel, single point].
For `COC(=O)c1ccccc1-c1ccc(/C=N/NC(N)=O)o1`, the Potency was inconclusive: 14.1 µM [quencher, side channel, partial curve].
With `COc1ccc2c(c1[N+](=O)[O-])CCC/C2=N/OC(=O)c1cccc2ccccc12` the “activity change, negative = inhibition” value was inactive: 7.53%.
With `CCOC(=O)C(CC)Sc1nc2c(c(=O)[nH]c(=O)n2C)n1C/C=C(/C)Cl` (stereo not drawn) the “activity change, negative = inhibition” value was inactive: 17.1%.
For `COc1ccc(-c2ncn(CCC#N)c2[N+](=O)[O-])cc1`, the Potency was inconclusive: 8.91 µM [quencher, side channel, partial curve].
